The values that follow come from patent US8008088B2, “SMMR (small molecule metabolite reporters) for use as in vivo glucose biosensors” (Masimo Laboratories, Inc., priority 2003, dated 2011).

This assay in a line: Fluorescence and absorption response of boronic acid reporters to glucose in buffer solution (in vitro). As to conditions: over a glucose range of 200 mg/dL; excitation 375 nm; emission 400-550 nm.

For the compound `O=C(Nc1ccc2c(C(F)(F)F)cc(=O)oc2c1)c1ccc(B(O)O)cc1` [AF-327d], the fluorescence intensity increase result is listed as “at least 40%”.
